Laboratory results as given in the RNAGym collection of RNA variant scans (doi:10.7554/elife.90254).
Read counts are not given, so values of variants with three or more changes are uncertain.

B1: LINE1-mini (parent)
chain: GGCAGAGCUCAACACAGCGUGGCAAAGUGGCUGUGGCUAGACUGCC

Variants of: B1
Assay: self-cleavage, relative activity (ratio to wild type); higher = more cleavage; in vitro, sequencing; the parent is a self-cleaving ribozyme
For GGCAGAGCUCAACACAGCAUGGCAAAGCGGCUGAGGCUAGACUGCC [G19A U28C U34A], the self-cleavage was 0.07. Variant GGCAGAGCUCAACACAGCCUGGCAUACUGGCUGUGGCUAGACUGCC [G19C A25U G27C] has a self-cleavage of 0.23. For GGCAGAGCUCAACACAGCAUGGAAAAGAGUCUGUGGCUAUAUUGCC [G19A C23A U28A G30U G40U C42U], the self-cleavage was 0.08. GGCAGAGCUCAACACAGCAUGGCAAAGUGGCUGUGGCUAGACUUGC [G19A G44U C45G] gave a self-cleavage of 0.02. GGCAGAGCUCAACACAGCAUGGCAAAUUGGCUUUGGCUAGACUGUC [G19A G27U G33U C45U] showed a self-cleavage of 0.06. With GGCAGAGCUCAACACAGCAUGGCAAAGUGGCUGUGGCUGCACUGCC [G19A A39G G40C] the self-cleavage was 0.05. Variant GGCAGAGCUCAACACAGCAUGGCAACGUGGCUGUGGCUAAACUGCC [G19A A26C G40A] has a self-cleavage of 0.16. GGCAGAGCUCAACACAGCAUGCCAAAGUGGUUGUGGAUAGACUGCC [G19A G22C C31U C37A] gave a self-cleavage of 0.06. For GGCAGAGCUCAACACAGCAUAGCAGAGUGGCUGUGGCUAGACUGCC [G19A G21A A25G], the self-cleavage was 1.85. Variant GGCAGAGCUCAACACAGCAUGGCAAAGUGGCUGUGGAUAGACUUCC [G19A C37A G44U] has a self-cleavage of 0.1. Work on GGCAGAGCUCAACACAGCAUGGCAAAGUGGCUGUUGCUAGACUGGC [G19A G35U C45G] yielded a self-cleavage of 0.08. With GGCAGAGCUCAACACAGCAUGGCAAAGUGGCAGUGGCUAGACUACC [G19A U32A G44A] the self-cleavage was 0.11. GGCAGAGCUCAACACAGCAUGUCAAAGUGGAUGUGGCUACACUGCC [G19A G22U C31A G40C] gave a self-cleavage of 0.03. In the case of GGCAGAGCUCAACACAGCAUCGCAAAGUGUCGGUUGCUAGACUGCC [G19A G21C G30U U32G G35U], the self-cleavage is reported as 0.03. In the case of GGCAGAGCUCAACACAGCCUGGCAAUGUGGCUGUGGCUAGACUACA [G19C A26U G44A C46A], the self-cleavage is reported as 0.01. Variant GGCAGAGCUCAACACAGCAUGGCAAAGUGGCUGUUUCUAGACUCCC [G19A G35U G36U G44C] has a self-cleavage of 0. In the case of GGCAGAGCUCAACACAGCAUGGCAAAGUGGCUGUGGCUACAGUGCC [G19A G40C C42G], the self-cleavage is reported as 0.03. With GGCAGAGCUCAACACAGCAUGCCAAUGUGGCUGGGGCUAGACUGCC [G19A G22C A26U U34G] the self-cleavage was 0.12. GGCAGAGCUCAACACAGCAUGGCAAAGUGGCUCUGGCUAGACUCCC [G19A G33C G44C] gave a self-cleavage of 0.06. GGCAGAGCUCAACACAGCAUGUCAAAGUGGCUGUCGCUAGACUGUC [G19A G22U G35C C45U] showed a self-cleavage of 0.31. In the case of GGCAGAGCUCAACACAGCAUGGCAAAGGGGCUGUGGCUAGAUUGCC [G19A U28G C42U], the self-cleavage is reported as 0.83. For GGCAGAGCUCAACACAGCAUGGGAAAGAGGCUGUGGCUAGACUGCC [G19A C23G U28A], the self-cleavage was 0.3. In the case of GGCAGAGCUCAACACAGCAUGGUAAAGUGGCUGUGGCUAUACUGCC [G19A C23U G40U], the self-cleavage is reported as 0.19. Work on GGCAGAGCUCAACACAGCAUGGGACAGUGGCGGUGGCUAGACUGUC [G19A C23G A25C U32G C45U] yielded a self-cleavage of 0.05. Variant GGCAGAGCUCAACACAGCAUGACAAAGUGGCUGUGGCUAGAUUGGC [G19A G22A C42U C45G] has a self-cleavage of 0.46. For GGCAGAGCUCAACACAGCAUGUCAAAGUAGUUGGGGCUAGACUGCC [G19A G22U G29A C31U U34G], the self-cleavage was 0.02. Work on GGCAGAGCUCAACACAGCAUGGCAAAGUGGCCGUGGCUAGACGGCC [G19A U32C U43G] yielded a self-cleavage of 0.07. For GGCAGAGCUCAACACAGCAUGGCAAAGUGGCAGUUGCUAGACUGCU [G19A U32A G35U C46U], the self-cleavage was 0.05. With GGCAGAGCUCAACACAGCCUGGCACAGUGGCUGUGGCUAGACUGGA [G19C A25C C45G C46A] the self-cleavage was 0.05. For GGCAGAGCUCAACACAGCAUGGCAAAGUGGCUGUGGCUAGACUCGC [G19A G44C C45G], the self-cleavage was 0.06. Variant GGCAGAGCUCAACACAGCAUGGCAAAUUGCCUGUGGCUAGACUGCC [G19A G27U G30C] has a self-cleavage of 0.35. GGCAGAGCUCAACACAGCAUGGCAAAGUGGCUGUUGCUAGUUUGCC [G19A G35U A41U C42U] showed a self-cleavage of 0.06. GGCAGAGCUCAACACAGCAUUGCAAAGUGGCUGAGGCUAGACUGCC [G19A G21U U34A] showed a self-cleavage of 0.1. In the case of GGCAGAGCUCAACACAGCAUGUCAAAGUGGCUGUGGCUUGACUGCC [G19A G22U A39U], the self-cleavage is reported as 0.58. For GGCAGAGCUCAACACAGCAUCUCAAAGUGCCUGUGGCUAGACUGCC [G19A G21C G22U G30C], the self-cleavage was 1.08. Variant GGCAGAGCUCAACACAGCAUGGCAAUGUGGCUGUGGCUAGACUGCU [G19A A26U C46U] has a self-cleavage of 1.09. With GGCAGAGCUCAACACAGCCUGGAAAAGUGGCUGUGGCAAGACUGCC [G19C C23A U38A] the self-cleavage was 0.1. GGCAGAGCUCAACACAGCAUGGCAAAGUGGCUGUGGCUAGACUGAG [G19A C45A C46G] gave a self-cleavage of 0.12. Work on GGCAGAGCUCAACACAGCCUGGCAAAGUGGCUGUGGCUUCACUGCC [G19C A39U G40C] yielded a self-cleavage of 0.12. Variant GGCAGAGCUCAACACAGCAUGGCAAAGUGACUGUGGCUAAUAUGCC [G19A G30A G40A A41U C42A] has a self-cleavage of 0.18. With GGCAGAGCUCAACACAGCAUGGCAAAGUGGAUGUGGCUAGAUUGCA [G19A C31A C42U C46A] the self-cleavage was 0.03. With GGCAGAGCUCAACACAGCAUGGCAAACUGGCUGUUGCUAGACUGCC [G19A G27C G35U] the self-cleavage was 0.07. For GGCAGAGCUCAACACAGCAUAGCAAAGUGGCUGUGGGUAGAAUGCC [G19A G21A C37G C42A], the self-cleavage was 0.02. Work on GGCAGAGCUCAACACAGCAUGGCAAACUGGCUGUGGAUAGACUGCA [G19A G27C C37A C46A] yielded a self-cleavage of 0.01. GGCAGAGCUCAACACAGCAUGGCAAAGUGGAUGUAGCUAGACGGUC [G19A C31A G35A U43G C45U] showed a self-cleavage of 0.02. GGCAGAGCUCAACACAGCAUGGCAAAGUGGCUGUUGCUAGACUACC [G19A G35U G44A] gave a self-cleavage of 0.15. Work on GGCAGAGCUCAACACAGCAUGGCAAAGUGGCUGUGGCUCGACUGGC [G19A A39C C45G] yielded a self-cleavage of 0.06. With GGCAGAGCUCAACACAGCAUGGCAAAGUGGCUGUACCUAGACUACG [G19A G35A G36C G44A C46G] the self-cleavage was 0.04. With GGCAGAGCUCAACACAGCAUGGCAAAGUGGUUGUGACUCGACUGCC [G19A C31U G36A A39C] the self-cleavage was 0.07. GGCAGAGCUCAACACAGCCUGGCAAUGUGGCUGUGGCUAGACGGUC [G19C A26U U43G C45U] showed a self-cleavage of 0.01. For GGCAGAGCUCAACACAGCAUGGCAAAGUGGCUGUGGCCAGGCCGCC [G19A U38C A41G U43C], the self-cleavage was 0.07. Variant GGCAGAGCUCAACACAGCAUGGCAAUGUGGCUUUGGCUAGACUGCC [G19A A26U G33U] has a self-cleavage of 0.11. For GGCAGAGCUCAACACAGCAUGGCAAAGUAGUUGUGGCUAGACUGCC [G19A G29A C31U], the self-cleavage was 0.49. In the case of GGCAGAGCUCAACACAGCAUCGCAUAGUGACUGUGGCUAGACUGCC [G19A G21C A25U G30A], the self-cleavage is reported as 1.2. Work on GGCAGAGCUCAACACAGCCUGGCUAAGUGGCUGUGGCUAGGCUGCC [G19C A24U A41G] yielded a self-cleavage of 0.06. With GGCAGAGCUCAACACAGCAUGGUAAAGUGGCUGAGGCUAAUCUGCC [G19A C23U U34A G40A A41U] the self-cleavage was 0.07.
